Test results: PubChem BioAssay AID1963576 (National Center for Advancing Translational Sciences (NCATS), 2024)
Hit rate of the full screen: of about 46,000 compounds, about 60 (0.1%) were called active. About 3% were inconclusive and are not listed. The call rests on the fitted dose curve; in most records, active means well fitted inhibition curve with a large enough effect; inconclusive means small, poorly fitted or top-dose-only effect; inactive means no such curve, though single readings can be large or run the other way. This is one part of the list.

Test: Primary qHTS assay for Inhibitors of ovarian cancer metastasis using an organotypic tumor microenvironment (TME) model. Further: nearly all actives have a fitted effect of over 65% in size.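 On activity change, negative = inhibition: plate controls were DMSO wells for no effect and tomatine positive control wells for full effect.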
Settings: SKOV3ip1-GFP adhesion/invasion on 3D omental model, fluorescence; series mostly up to 45.8 µM; activity change, negative = inhibition: at the top concentration
In short: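 qHTS, 4-pt dose (0.36-46 umol/L); SKOV3ip1-GFP, 1,200 cells/well, no FBS; primary omental fibroblast/mesothelial co-culture 48 h pre-grown; 2 h RT + 16 h 37 C; PBS wash, 4% PFA; GFP count 488/509 nm.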

outcome, inactive:
CCCn1c2ccccc2c2cnn(CC(=O)NCCc3ccc(OC)cc3OC)c(=O)c21
Cc1ccc(-n2nc(CO)c(C(=O)NCc3cccs3)n2)cc1
COc1ccccc1Nc1cc(C(=O)NCc2cccs2)c2ccccc2n1
Cc1cc(NC(=O)Nc2nc3c(s2)CCCCCC3)ccc1Br
O=C(CC(NCc1cccnc1)C(=O)O)Nc1ccc(F)cc1 (configuration not stated)
CCCN1C(=O)C2(c3ccccc31)c1c(oc3ccccc3c1=O)C(=O)N2CCO (configuration not stated)
C=Cc1ccc(Cn2c(C(=O)O)c(CNCc3cc(Br)ccc3OC)c3ccc(C)cc32)cc1
COc1cc(-c2nnc(SCCOc3cc(C)cc(C)c3)o2)cc(OC)c1OC
Cc1cc(OC(C)C(=O)Nc2sc3c(c2C(N)=O)CCCC3)ccc1Cl (configuration not stated)
Cc1ccc(C(C)C)c(OC(C)C(=O)NCC2(N(C)C)CCCCC2)c1 (configuration not stated)
CCOC(=O)c1c(C)[nH]c(CCC(=O)Nc2ccc(OC)c(OC)c2)c1C
Cc1noc(C)c1S(=O)(=O)N1CCC(C(=O)N2CCN(c3cccc(C(F)(F)F)c3)CC2)CC1
CCn1cc(C(=O)N2CCN(c3cccc(C)c3C)CC2)c2cc(OC)c(OC)cc2c1=O
NS(=O)(=O)c1ccc(NC(=O)C2Cc3ccccc3N2C(=O)c2ccccc2)cc1 (configuration not stated)
COc1ccc(OC)c(CCNC(=O)Cn2ncc3c([nH]c4ccccc43)c2=O)c1
COC(=O)c1nnn(CC(=O)NC(=O)Nc2c(C)cccc2C)c1C(=O)OC
COc1ccc(N2CC(NC(=O)C(c3ccccc3)c3ccccc3)CC2=O)cc1OC (configuration not stated)
COCCCNC(=O)CCC(=O)NNc1nc2ccccc2c2nc(C)nn12

Activity change, negative = inhibition, inactive:
CCN(CC)c1nn2c(=O)c(C(=O)NCc3ccc(F)cc3)cnc2s1 6.82%
CCNC(=O)Cc1ccc(NC(=O)N2CCCCc3ccccc32)cc1 15%
COc1ccc(CC(=O)NCCc2csc(-c3ccc(Cl)cc3)n2)cc1 -0.707%
CCn1nc(C)c(CCN(C)C(=O)Nc2cc(Cl)ccc2C)c1C 5.1%
O=C(Nc1ccc(Cl)cc1)N1CCN(c2ccc3nnc(-c4ccc(F)cc4)n3n2)CC1 15.6%
Cc1ccc(CNC(=O)CCS(=O)(=O)c2cc(Br)cc3c2N(C(=O)C2CC2)CC3)cc1 8.15%
COc1cc2c(c(OC)c1OC)-c1ccc(OC)c(=O)cc1[C@@H](NC(C)=O)CC2 12.5%
CCC(=O)N1CCc2cc(S(=O)(=O)CCC(=O)NCc3ccccc3OC)ccc21 68.3%
Cc1ccc(NCc2nc3ccccc3n2CCOc2ccccc2)cc1 -0.162%
CCCCn1c(CNC(=O)c2ccc(OC)cc2)nnc1SCC(=O)Nc1ccc(OC)cc1 23.6%
COc1ccc(CC2SC(=O)NC2=O)cc1C(=O)NCc1ccc(C(F)(F)F)cc1 (configuration not stated) 1.54%
CN(C)S(=O)(=O)c1ccc2c(c1)N(CC(=O)N1CCN(c3ccc(F)cc3)CC1)CCS2 16.6%
Cc1ccc(-c2nc(CS(=O)CC(=O)N3CCN(c4ccc(Cl)cc4)CC3)c(C)o2)cc1 (configuration not stated) -15.6%
CC1(C)CC(=O)c2c(oc3c(Cl)cc(NS(=O)(=O)c4ccc(Cl)cc4)cc23)C1 1.43%
COc1ccc(-c2noc(-c3nnn(-c4cc(C)ccc4C)c3N)n2)cc1 -2.83%
COc1ccccc1-c1nnc(C2CCN(C(=O)c3ccc(C)cc3)CC2)o1 6.01%
NC(=O)CSc1ncc2c(n1)-c1ccccc1N(Cc1cccc(F)c1)S2(=O)=O -10.7%
COc1ccc2nc3oc(C(=O)NCc4ccccc4OC)cc3cc2c1 -6.46%
Cc1cc(NC(=O)CSc2ncc(C(=O)Nc3ccc(F)cc3)c(=O)n2C)no1 -3.04%
Cc1nc2ccccc2c(=O)n1-c1ccc(NC(=O)C(F)(F)F)cc1 -3.73%
Cc1ccc(-n2ncc(C(=O)NCCc3ccsc3)c2C2CCN(C(=O)OC(C)(C)C)CC2)cc1C 27.5%
CCN(CC)CCNC(=O)c1ccc(Cn2c(=O)c3cccn3c3cccnc32)cc1 -4.88%
CC1CCN(c2ccc(-c3nc(C(C)C)no3)cc2[N+](=O)[O-])CC1 -4.57%
CNC(=O)c1ccc(N2C(=S)N(c3cnc(C#N)c(C(F)(F)F)c3)C(=O)C23CCC3)cc1F -6.08%
CCOc1ccccc1NC(=O)c1c(NCc2sccc2C)sc2c1CCCCC2 -11.7%
CCCNC(=O)c1ccc(-n2c(-c3ccccc3)cc3c2CCC(C)C3)cc1 (configuration not stated) -27%
O=c1oc2ccc(Br)cc2cc1-c1csc(-c2ccc(Cl)cc2)n1 -3.11%
Cc1cccc(N2CCN(C(=O)CS(=O)(=O)c3cccc4nsnc34)CC2C)c1 (configuration not stated) -28.3%
COc1ccc(-c2cc3ccc(O)c(CN4CCC(C)CC4)c3oc2=O)cc1OC 6.04%
Cc1cccc(Cn2cccc2CNS(=O)(=O)c2ccc(Br)cc2)c1 -1.33%
CC(NC(=O)CN1C(=O)c2cccnc2Oc2ccc(Cl)cc21)c1ccccc1 (configuration not stated) -17.7%
Cc1ccccc1CN1C(=O)c2ccccc2S(=O)(=O)c2ccc(C(=O)OCC3CCCO3)cc21 (configuration not stated) 1.91%
COc1ccc(S(=O)(=O)Nc2cc(S(=O)(=O)c3ccccc3)c(O)c(C)c2C)cc1 2.83%
Cc1ccc(Cn2c(C(C)NC(=O)c3ccccc3)nc3ccccc32)cc1 (configuration not stated) 15.2%
CCOc1ccccc1CNc1nc2nc(C)cc(C)n2n1 -0.522%
Cn1ccc2cc(S(=O)(=O)N3CCN(C(=O)Nc4ccc(F)cc4F)CC3)ccc21 -12.8%
CCC1CCCCN1C(=O)CSc1nc2c([nH]c3ccccc32)c(=O)n1-c1ccc(OC)cc1 (configuration not stated) -1.08%
CC(C)NC(=O)CCC(=O)N1Cc2ccccc2Oc2ncccc21 16.5%
CCn1cc2nc(SCC(=O)Nc3ccccc3C(F)(F)F)n(Cc3ccc(C)cc3)c(=O)c2n1 4.24%
CCCCN(CC)CCCNC(=O)c1nn(C)c2c1CSc1ccccc1-2 4.25%
Cc1ccccc1C(=O)n1nc(-c2cccnc2)nc1NCc1ccccc1 -18.7%
COc1ccc(C2CC(=O)c3cc(-c4nc(-c5ccc(Cl)cc5)cs4)c(=O)[nH]c3C2)cc1OC (configuration not stated) 1.75%
CC1Cc2ccccc2N1S(=O)(=O)c1nnc(NC(=O)c2ccccc2)s1 (configuration not stated) 4.3%
CC(C)Oc1ccc(-c2nc3c(C#N)c[nH]n3c2NC2CCCCC2)cc1 0.251%
